# Reference: the supplement of paper PMC8728848
# The list shows a part of the results.
# B1: FimA-N1 (Actinomyces oris) (protein)
# chain: MHHHHHHSSGVDLGTENLYFQSNATETPNYGNIKTDATGSLVIHKHLTGGGKDIGTPTGTAQNADDKGPAVEGVVFTAYPITDINLKDPAGWDTISNLSRTGVPDSACANPAAPTLGAHQFGTPKVSPATTKEGLATITEMPVQAYLVCETTTPGDIVQKAKPFVVTIPHPNTAAGADGQWIYDVNVYPKNEAIDVDKTIQAQK
# Columns and labels:
# Assay in all cases: glycan array binding signal (z-score within array); higher = stronger binding
# Conditions in all cases: glycan notation: IUPAC condensed, linker removed
# [1] = target: Fuc(a1-2)Gal6S(b1-3)GlcNAc6S
# Method in brief: (§1)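 Columns mapping to the same glycan were averaged after glycan names were converted to IUPAC-condensed notation. The data come from 3228 arrays in the Consortium for Functional Glycomics database, limited to those with an available protein sequence. Binding is reported as a within-array Z-score averaged across arrays of one protein sequence and across linkers.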
# Fuc(a1-2)Gal6S(b1-4)Glc = target: Fuc(a1-2)Gal6S(b1-4)Glc
# Method in brief: as §1
# [2] = target: Fuc(a1-2)Gal6S(b1-4)Glc6S
# Method in brief: as §1
# Fuc(a1-2)[Gal(a1-3)]Gal = target: Fuc(a1-2)[Gal(a1-3)]Gal
# Method in brief: as §1
# [3] = target: Fuc(a1-2)[Gal(a1-3)]Gal(b1-3)GalNAc
# Method in brief: as §1
# [4] = target: Fuc(a1-2)[Gal(a1-3)]Gal(b1-3)GalNAc(b1-3)Gal(a1-4)Gal(b1-4)Glc
# Method in brief: as §1
# [5] = target: Fuc(a1-2)[Gal(a1-3)]Gal(b1-3)GlcNAc
# Method in brief: as §1
# [6] = target: Fuc(a1-2)[Gal(a1-3)]Gal(b1-3)GlcNAc(b1-2)Man(a1-3)[Fuc(a1-2)[Gal(a1-3)]Gal(b1-3)GlcNAc(b1-2)Man(a1-6)]Man(b1-4)GlcNAc(b1-4)GlcNAc
# Method in brief: as §1
# [7] = target: Fuc(a1-2)[Gal(a1-3)]Gal(b1-3)GlcNAc(b1-2)Man(a1-3)[Fuc(a1-2)[Gal(a1-3)]Gal(b1-3)GlcNAc(b1-2)Man(a1-6)]Man(b1-4)GlcNAc(b1-4)[Fuc(a1-6)]GlcNAc
# Method in brief: as §1
# [8] = target: Fuc(a1-2)[Gal(a1-3)]Gal(b1-3)GlcNAc(b1-3)GalNAc
# Method in brief: as §1
# [9] = target: Fuc(a1-2)[Gal(a1-3)]Gal(b1-3)GlcNAc(b1-6)GalNAc
# Method in brief: as §1
# [10] = target: Fuc(a1-2)[Gal(a1-3)]Gal(b1-4)Glc
# Method in brief: as §1
# [11] = target: Fuc(a1-2)[Gal(a1-3)]Gal(b1-4)GlcNAc
# Method in brief: as §1
# [12] = target: Fuc(a1-2)[Gal(a1-3)]Gal(b1-4)GlcNAc(b1-2)Man
# Method in brief: as §1
# [13] = target: Fuc(a1-2)[Gal(a1-3)]Gal(b1-4)GlcNAc(b1-2)Man(a1-3)[Fuc(a1-2)[Gal(a1-3)]Gal(b1-4)GlcNAc(b1-2)Man(a1-6)]Man(b1-4)GlcNAc(b1-4)GlcNAc
# Method in brief: as §1
# [14] = target: Fuc(a1-2)[Gal(a1-3)]Gal(b1-4)GlcNAc(b1-2)Man(a1-3)[Fuc(a1-2)[Gal(a1-3)]Gal(b1-4)GlcNAc(b1-2)Man(a1-6)]Man(b1-4)GlcNAc(b1-4)[Fuc(a1-6)]GlcNAc
# Method in brief: as §1
# [15] = target: Fuc(a1-2)[Gal(a1-3)]Gal(b1-4)GlcNAc(b1-3)GalNAc
# Method in brief: as §1
# [16] = target: Fuc(a1-2)[Gal(a1-3)]Gal(b1-4)GlcNAc(b1-3)[Fuc(a1-2)[Gal(a1-3)]Gal(b1-4)GlcNAc(b1-6)]GalNAc
# Method in brief: as §1
# [17] = target: Fuc(a1-2)[Gal(a1-3)]Gal(b1-4)GlcNAc(b1-6)GalNAc
# Method in brief: as §1
# [18] = target: Fuc(a1-2)[Gal(a1-3)]Gal(b1-4)[Fuc(a1-3)]Glc
# Method in brief: as §1
# [19] = target: Fuc(a1-2)[Gal(a1-3)]Gal(b1-4)[Fuc(a1-3)]GlcNAc
# Method in brief: as §1
# [20] = target: Fuc(a1-2)[Gal(a1-3)]Gal(b1-4)[Fuc(a1-3)]GlcNAc(b1-3)GalNAc
# Method in brief: as §1
# [21] = target: Fuc(a1-2)[Gal(a1-4)]Gal(b1-4)GlcNAc
# Method in brief: as §1
# [22] = target: Fuc(a1-2)[GalNAc(a1-3)]Gal
# Method in brief: as §1
# [23] = target: Fuc(a1-2)[GalNAc(a1-3)]Gal(b1-3)GalNAc(a1-3)[Fuc(a1-2)]Gal(b1-4)GlcNAc
# Method in brief: as §1
# [24] = target: Fuc(a1-2)[GalNAc(a1-3)]Gal(b1-3)GalNAc(b1-3)Gal(a1-4)Gal(b1-4)Glc
# Method in brief: as §1
# [25] = target: Fuc(a1-2)[GalNAc(a1-3)]Gal(b1-3)GlcNAc
# Method in brief: as §1
# [26] = target: Fuc(a1-2)[GalNAc(a1-3)]Gal(b1-3)GlcNAc(b1-2)Man(a1-3)[Fuc(a1-2)[GalNAc(a1-3)]Gal(b1-3)GlcNAc(b1-2)Man(a1-6)]Man(b1-4)GlcNAc(b1-4)GlcNAc
# Method in brief: as §1
# [27] = target: Fuc(a1-2)[GalNAc(a1-3)]Gal(b1-3)GlcNAc(b1-2)Man(a1-3)[Fuc(a1-2)[GalNAc(a1-3)]Gal(b1-3)GlcNAc(b1-2)Man(a1-6)]Man(b1-4)GlcNAc(b1-4)[Fuc(a1-6)]GlcNAc
# Method in brief: as §1
# [28] = target: Fuc(a1-2)[GalNAc(a1-3)]Gal(b1-3)GlcNAc(b1-3)GalNAc
# Method in brief: as §1
# [29] = target: Fuc(a1-2)[GalNAc(a1-3)]Gal(b1-3)GlcNAc(b1-6)GalNAc
# Method in brief: as §1
# [30] = target: Fuc(a1-2)[GalNAc(a1-3)]Gal(b1-4)Glc
# Method in brief: as §1
# [31] = target: Fuc(a1-2)[GalNAc(a1-3)]Gal(b1-4)GlcNAc
# Method in brief: as §1
# [32] = target: Fuc(a1-2)[GalNAc(a1-3)]Gal(b1-4)GlcNAc(b1-2)Man
# Method in brief: as §1
# [33] = target: Fuc(a1-2)[GalNAc(a1-3)]Gal(b1-4)GlcNAc(b1-2)Man(a1-3)[Fuc(a1-2)[GalNAc(a1-3)]Gal(b1-4)GlcNAc(b1-2)Man(a1-6)]Man(b1-4)GlcNAc(b1-4)GlcNAc
# Method in brief: as §1
# [34] = target: Fuc(a1-2)[GalNAc(a1-3)]Gal(b1-4)GlcNAc(b1-2)Man(a1-3)[Fuc(a1-2)[GalNAc(a1-3)]Gal(b1-4)GlcNAc(b1-2)Man(a1-6)]Man(b1-4)GlcNAc(b1-4)[Fuc(a1-6)]GlcNAc
# Method in brief: as §1
# [35] = target: Fuc(a1-2)[GalNAc(a1-3)]Gal(b1-4)GlcNAc(b1-3)Gal(b1-4)GlcNAc
# Method in brief: as §1
# [36] = target: Fuc(a1-2)[GalNAc(a1-3)]Gal(b1-4)GlcNAc(b1-3)Gal(b1-4)GlcNAc(b1-3)Gal(b1-4)GlcNAc
# Method in brief: as §1
# [37] = target: Fuc(a1-2)[GalNAc(a1-3)]Gal(b1-4)GlcNAc(b1-3)GalNAc
# Method in brief: as §1
# [38] = target: Fuc(a1-2)[GalNAc(a1-3)]Gal(b1-4)GlcNAc(b1-3)[Fuc(a1-2)[GalNAc(a1-3)]Gal(b1-4)GlcNAc(b1-6)]GalNAc
# Method in brief: as §1
# [39] = target: Fuc(a1-2)[GalNAc(a1-3)]Gal(b1-4)GlcNAc(b1-6)GalNAc
# Method in brief: as §1
# [40] = target: Fuc(a1-2)[GalNAc(a1-3)]Gal(b1-4)[Fuc(a1-3)]GlcNAc
# Method in brief: as §1
# [41] = target: Fuc(a1-2)[GalNAc(a1-3)]Gal(b1-4)[Fuc(a1-3)]GlcNAc(b1-3)GalNAc
# Method in brief: as §1
# [42] = target: Fuc(a1-2)[GalNAc(a1-4)]Gal(b1-4)GlcNAc
# Method in brief: as §1
# [43] = target: Fuc(a1-2)[GalNAc(b1-3)]Gal
# Method in brief: as §1
binder,measurement,setting,value
B1,glycan array binding signal (z-score),[1],-0.124
same,glycan array binding signal (z-score),Fuc(a1-2)Gal6S(b1-4)Glc,-0.338
same,glycan array binding signal (z-score),[2],0.072
same,glycan array binding signal (z-score),Fuc(a1-2)[Gal(a1-3)]Gal,0.245
same,glycan array binding signal (z-score),[3],-0.371
same,glycan array binding signal (z-score),[4],0.011
same,glycan array binding signal (z-score),[5],1.81
same,glycan array binding signal (z-score),[6],0.124
same,glycan array binding signal (z-score),[7],-0.179
same,glycan array binding signal (z-score),[8],-0.183
same,glycan array binding signal (z-score),[9],0.418
same,glycan array binding signal (z-score),[10],-0.323
same,glycan array binding signal (z-score),[11],-0.143
same,glycan array binding signal (z-score),[12],-0.282
same,glycan array binding signal (z-score),[13],-0.32
same,glycan array binding signal (z-score),[14],0.004
same,glycan array binding signal (z-score),[15],-0.094
same,glycan array binding signal (z-score),[16],-0.259
same,glycan array binding signal (z-score),[17],-0.219
same,glycan array binding signal (z-score),[18],-0.347
same,glycan array binding signal (z-score),[19],-0.008
same,glycan array binding signal (z-score),[20],-0.379
same,glycan array binding signal (z-score),[21],-0.094
same,glycan array binding signal (z-score),[22],-0.184
same,glycan array binding signal (z-score),[23],-0.184
same,glycan array binding signal (z-score),[24],-0.132
same,glycan array binding signal (z-score),[25],-0.281
same,glycan array binding signal (z-score),[26],-0.408
same,glycan array binding signal (z-score),[27],-0.344
same,glycan array binding signal (z-score),[28],-0.262
same,glycan array binding signal (z-score),[29],-0.324
same,glycan array binding signal (z-score),[30],-0.095
same,glycan array binding signal (z-score),[31],-0.453
same,glycan array binding signal (z-score),[32],-0.269
same,glycan array binding signal (z-score),[33],-0.201
same,glycan array binding signal (z-score),[34],-0.321
same,glycan array binding signal (z-score),[35],-0.232
same,glycan array binding signal (z-score),[36],-0.23
same,glycan array binding signal (z-score),[37],-0.41
same,glycan array binding signal (z-score),[38],-0.224
same,glycan array binding signal (z-score),[39],-0.162
same,glycan array binding signal (z-score),[40],0.129
same,glycan array binding signal (z-score),[41],0.011
same,glycan array binding signal (z-score),[42],0.103
same,glycan array binding signal (z-score),[43],1.69
